# Measured values taken from article PMC4336329 (PLoS ONE, 2015).
# Out of some 310,000 compounds screened, about 2,200 (0.71%) showed an effect of 50% or more. The effect is printed as a negative number. The list shows a part of the results.
# Target: human ether-à-go-go-related gene (hERG) potassium channel (human, UniProt Q12809)
# Assay: primary screen, population patch clamp on CHO cells stably expressing hERG
# Chain of human ether-à-go-go-related gene (hERG) potassium channel (Q12809 whole entry, looked up): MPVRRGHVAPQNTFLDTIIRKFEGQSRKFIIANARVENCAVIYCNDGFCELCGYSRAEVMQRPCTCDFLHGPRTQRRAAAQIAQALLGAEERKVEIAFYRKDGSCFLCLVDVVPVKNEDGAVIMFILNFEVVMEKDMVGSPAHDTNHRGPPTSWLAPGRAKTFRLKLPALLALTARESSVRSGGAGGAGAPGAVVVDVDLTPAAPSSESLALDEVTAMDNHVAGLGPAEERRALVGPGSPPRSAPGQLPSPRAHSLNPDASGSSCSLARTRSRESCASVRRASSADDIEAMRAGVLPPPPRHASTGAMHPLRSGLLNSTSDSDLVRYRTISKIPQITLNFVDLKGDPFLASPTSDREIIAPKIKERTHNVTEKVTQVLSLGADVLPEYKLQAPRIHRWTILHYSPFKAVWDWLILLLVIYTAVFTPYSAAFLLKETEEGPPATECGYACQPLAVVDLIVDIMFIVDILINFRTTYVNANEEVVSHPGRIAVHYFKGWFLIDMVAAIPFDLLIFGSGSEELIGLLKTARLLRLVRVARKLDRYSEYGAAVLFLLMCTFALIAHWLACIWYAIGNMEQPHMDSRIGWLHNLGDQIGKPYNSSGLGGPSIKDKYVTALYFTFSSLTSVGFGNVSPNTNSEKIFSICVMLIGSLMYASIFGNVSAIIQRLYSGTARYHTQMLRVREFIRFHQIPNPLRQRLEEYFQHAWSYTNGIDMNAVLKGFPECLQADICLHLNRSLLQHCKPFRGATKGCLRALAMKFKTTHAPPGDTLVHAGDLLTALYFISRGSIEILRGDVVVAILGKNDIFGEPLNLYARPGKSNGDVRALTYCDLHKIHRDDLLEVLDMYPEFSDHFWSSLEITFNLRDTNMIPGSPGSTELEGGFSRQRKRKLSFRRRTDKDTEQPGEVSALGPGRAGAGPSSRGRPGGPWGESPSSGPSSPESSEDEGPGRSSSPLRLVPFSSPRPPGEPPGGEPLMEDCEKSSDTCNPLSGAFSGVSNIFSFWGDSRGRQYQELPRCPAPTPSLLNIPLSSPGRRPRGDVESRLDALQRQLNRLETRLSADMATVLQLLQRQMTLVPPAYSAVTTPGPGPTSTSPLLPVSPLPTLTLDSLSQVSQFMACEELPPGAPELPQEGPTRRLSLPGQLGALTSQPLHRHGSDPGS
row,SMILES,"hERG current change (%, negative = inhibition) at 1uM [%]"
1,CCN(CC)CCCN(Cc1cc2cc3c(cc2[nH]c1=O)OCO3)C(=S)Nc1ccccc1,-5.35
2,CC1(C)CC(=O)C(/C=N/n2c(C(F)(F)F)nc3ccccc3c2=O)=C(O)C1,9.24
3,CCO[C@H]1OC(C(=O)Nc2ccccc2)=C[C@@H](C2CC2)[C@@H]1CCCO,8.36
4,O=S(=O)(NC1CC1)c1ccc(F)c(F)c1,10.1
5,COc1cc(/C=C/C(=O)Nc2nnc(CC(C)(C)C)s2)cc(OC)c1OC,10.2
6,O=C1c2ccccc2C(=O)N1CCCC(=O)N1CCc2ccccc21,6.1
7,CN(C)S(=O)(=O)N1CCC(n2nccc2NC(=O)CCCc2ccccc2)CC1,11.5
8,COc1ccc(S(=O)(=O)N2CCC(C)CC2)cc1N(C)S(=O)(=O)c1ccccc1,11.4
9,COC(=O)COc1ccc(/C=C2/SC(=O)N(CC(=O)N3CCCC3)C2=O)cc1Br,12.3
10,COc1ccc(C(=O)C2CCCN(C(=O)c3ccccc3C(C)=O)C2)cc1F (stereo not drawn),3.19
11,O=C(CN1C(=O)NC2(CCc3ccccc32)C1=O)NCC(F)(F)F (stereo not drawn),9.77
12,COC(=O)c1c(C)[nH]c(C(=O)CC#N)c1C,10.2
13,Cc1cc(OC(=O)CCCNC(=O)OC(C)(C)C)c2c3c(c(=O)oc2c1)CCC3,-4.33
14,Cc1cccc(NC(=O)C2CCN(C(=O)c3ccco3)CC2)c1C,15.7
15,CN1CCN(C(=O)COc2ccc3ccccc3c2Br)CC1,-2.35
16,COc1ccc(CSc2nnnn2-c2ccc(O)cc2)cc1F,11.9
17,COc1ccccc1NC(=O)CSc1nnc(CNC(=O)c2ccco2)o1,12.4
18,COC(=O)COc1cccc(NC(=O)c2ccc(C)cc2)c1,16.9
19,CCOC(=O)Cc1csc(N/C(=N/S(=O)(=O)c2ccc(F)cc2F)c2ccccc2)n1,9.2
20,CCc1ccc(Cc2cnc(NC(=O)C3=NCCN3)s2)cc1,0.134
21,Cc1ccc(-n2c(-c3ccco3)n[nH]c2=S)cc1,16.7
22,O=C(CS(=O)(=O)c1ccccc1)Nc1nc2ccccc2s1,9.98
23,CCN(c1ccccc1)S(=O)(=O)c1ccc(OC)c(NC(=O)Cc2ccc(F)cc2)c1,-3.37

row,SMILES,"hERG current change (%, negative = inhibition) at 1uM [%]"
1,Cc1[nH]c(=S)c(C#N)c(-c2ccccc2)c1C(=O)Nc1ccccc1,15.7
2,CCCn1cnc2cc(NC(=O)c3ccco3)ccc21,-1.03
3,CCN1C(=O)C(=O)N(CC(=O)N(C)CC(=O)Nc2ccccc2Cl)C1=O,10.4
4,Cc1cccc(OCC(=O)NC(=S)Nc2ccccc2N2CCOCC2)c1,11.6
5,CN1CCN(NC(=O)Nc2cc(Cl)cc(Cl)c2)CC1,9.87
6,Cc1ccc(N=C(NO)c2nonc2N)c(C)c1,10.4
7,CCc1[nH]c(=O)[nH]c1C(C)S(=O)(=O)c1ccc(C)cc1 (stereo not drawn),11.5
8,CCOC(=O)C1C(=O)CC(C)(O)C(C(=O)OCC)C1c1cccs1 (stereo not drawn),21.2
9,CCCCC1=CC2=CC(=O)C(C)(OC(=O)c3cnc4ccccc4n3)C(=O)C2=CO1 (stereo not drawn),17.4
10,CC(C)c1ccccc1-n1c(SCC(=O)N2CCc3ccccc3C2)nc2ccccc2c1=O,10.7
11,COc1ccccc1C(=O)Nc1c(C)n(C)n(-c2ccccc2)c1=O,13
12,CC(=O)NC(c1ccc2ccccc2c1)c1ccc2cccnc2c1O (stereo not drawn),13.7
13,O=C1CC2(CCCC2)Oc2ccc(Cl)cc21,6.48
14,NC(=O)c1cc(Br)cc2c3c([nH]c12)CCCC3,11.4
15,c1cc2c(cc1C1=Nn3c(nnc3C3CCCCC3)SC1)OCO2,10.1
16,CC1Cn2c(nnc2C23CC4CC(CC(C4)C2)C3)S1 (stereo not drawn),7.65
17,COc1ccc(CC(C)N2CCN(c3cccc(C(F)(F)F)c3)CC2)cc1OC (stereo not drawn),-6.45
18,OC(CN1CCCCC1)CN1CCCCC1,15.5
19,CC(C)=CCN1CCN(Cc2cccc3c2OCO3)CC1CCO (stereo not drawn),7.17
20,CC(C)=CC(=O)Nc1nnc(-c2ccc(F)cc2)s1,-0.981
21,CC(C)(C)n1nnnc1C(c1cccs1)N(Cc1ccccc1)Cc1ccco1 (stereo not drawn),-0.957
22,O=S(=O)(c1ccc(NC(=S)NCc2ccncc2)cc1)N1CCCCC1,13
23,CCCN1CCN(C(=O)Nc2ccc(C(=O)OCC)cc2)CC1,9.5

row,SMILES,"hERG current change (%, negative = inhibition) at 1uM [%]"
1,COC(=O)c1ccc(C(=O)OC)c(NC(=O)CCS(=O)(=O)Cc2ccccc2)c1,7.09
2,Cc1ccc(Nc2ncc3c(n2)CC(c2ccco2)CC3=O)c(C)c1 (stereo not drawn),-10.1
3,CC12CN3CCN(CC(C3)/C1=N/NC(N)=O)C2,11.7
4,NC(=O)c1ccccc1Nc1nc(NCCO)nc(N2CCCC2)n1,18.7
5,CCN(Cc1ccccc1)S(=O)(=O)c1ccc(C(=O)N(CCCN(C)C)c2nc3cc(C)cc(C)c3s2)cc1.Cl,3.79
6,C=CCNC(=S)NNC(=O)c1cc(O)ccc1O,11.7
7,O=C(CC12CC3CC(CC(C3)C1)C2)Nc1c(F)cccc1F,15.1
8,CCc1ccc2oc(C(=O)Nc3ccc(S(N)(=O)=O)cc3)c(C)c2c1,17.8
9,O=C1C2C(C(=O)N1CC1CCCO1)C1C=CC2C12CC2 (stereo not drawn),2.77
10,CCc1nnc(NC(=O)CSc2nnc(-c3cccnc3)n2CC)s1,13.5
11,CCOC(=O)N1CCN(S(=O)(=O)c2cccc3nonc23)CC1,-4.31
12,Cc1cccc(NC(=O)CC2SC(=NC3CCCCC3)NC2=O)c1 (stereo not drawn),11.6
13,Cl.OC(COCc1ccccc1)CN1CCCC1 (stereo not drawn),1.21
14,CCCc1cc(=O)[nH]c(SCC(=O)NC)n1,-0.511
15,Cl.NCCN1C(=O)S/C(=C\c2ccc3c(c2)OCO3)C1=O,4.94
16,O=C(NC1CCCN(C2Cc3ccccc3C2)C1)c1ccc(F)cc1Cl (stereo not drawn),-72.9
17,CC1CCN(C(=O)CSc2nc3ccccc3c(=O)[nH]2)CC1,3.31
18,Cc1cccc(NC(=O)CCN2CCN(C)CC2)c1.Cl,14.1
19,CC(C)(C)c1nc(NCc2ccc3c(c2)OCO3)c2nnn(Cc3ccccc3Cl)c2n1.Cl,18.3
20,O=C(NCc1ccc(F)cc1)c1cc2sccc2n1Cc1ccc(F)cc1,18.6
21,C/C(=N/NC(=O)c1ccc(O)cc1)c1cccc([N+](=O)[O-])c1,9.78
22,COC(=O)c1ccc(-c2ccc(/C=N/N3C(=O)C4C5C=CC(CC5)C4C3=O)o2)cc1 (stereo not drawn),9.56
23,O=C(c1cccc(COc2ccc(Cl)cc2Cl)c1)N1CCN(c2ccccn2)CC1,-4.37

row,SMILES,"hERG current change (%, negative = inhibition) at 1uM [%]"
1,CCCCN(C)C(=O)c1c[nH]c2ccc(S(=O)(=O)N3CCOCC3)cc2c1=O,14.9
2,CC(C)[C@H](NC(=O)c1ccccc1F)C(=O)Nc1ccc2c(c1)OCO2,10.7
3,NC(=O)c1nn(CC(=O)Nc2cccc(S(=O)(=O)N3CCCCCC3)c2)c(=O)c2ccccc12,0.662
4,CC(C)Sc1nc2ccccc2n1CC(=O)O,5.17
5,Cc1ccc(NC(=O)c2cc([N+](=O)[O-])ccc2N2CCCC2)cc1,6.31
6,Cn1cnnc1SCNC(=O)C(F)(F)F,11.4
7,CCCCNC(=O)C(CC)(ONc1ccccc1C(F)(F)F)c1ccccc1 (stereo not drawn),8.92
8,CCOc1ccccc1CN1CCN(Cc2csc(C(C)=O)c2)CC1CCO (stereo not drawn),-3.65
9,CC(C)[C@@H]1NC(=O)c2cc([N+](=O)[O-])cc(I)c2NCCC[C@@H](C(N)=O)NC(=O)[C@H](CO)NC1=O,8.46
10,CCn1c(=N)n(CC(=O)c2cccc(OC)c2)c2ccccc21,5.01
11,Cc1cc(C)c(NC(=O)Cn2c(=O)n(-c3ccc(CC(=O)NCC4CCCO4)cc3)c(=O)c3ccccc32)c(C)c1 (stereo not drawn),13
12,CCCNC(=O)NC(=O)CN1C(=O)NC(C)(c2ccc(C)cc2)C1=O (stereo not drawn),5.48
13,COc1cc(OC)cc(N2C(=O)CSCC2=O)c1,8.03
14,CCCCNC(=O)C(=O)c1ccccc1NC(C)=O,4.61
15,COc1ccc(C2CC(c3ccccc3)=NN2c2ccc(/C=N/NC(=O)c3ccncc3)cc2)cc1 (stereo not drawn),6.38
16,CCN(CC)S(=O)(=O)c1cccc(C(=O)NCC2CCCO2)c1 (stereo not drawn),7.81
17,O=C(c1ccccc1)N1N=C(c2cccs2)CC1c1ccccc1O (stereo not drawn),12.1
18,CCOC(=O)C1=NNC2C(=O)N(C3CCCCC3)C(=O)C12 (stereo not drawn),10.7
19,O=C(NC1CCSc2ccccc21)c1ccc([N+](=O)[O-])cc1 (stereo not drawn),-6.81
20,CCOc1cc(C(=O)NC(C)CC)cc(OCC)c1OCC (stereo not drawn),13.9
21,COc1cccc(OP(=O)(Nc2ccccc2)Oc2cccc(OC)c2)c1,10.4
